In all, about 350,000 compounds went through this assay and about 260 (0.074%) were called active. This list was built around the results that the source calls inconclusive (neither active nor inactive); the mix of calls is not that of the screen. Calls come from the whole dose curve; as a rule, active = well fitted inhibition curve with a large enough effect; inconclusive = small, poorly fitted or top-dose-only effect; inactive = no such curve, though single readings can be large or run the other way. Where the call is inconclusive, the potency comes from a doubtful curve fit.
target: Ferritin light chain (Equus caballus) (UniProt P02791); experiment: qHTS Assay for Identification of Novel General Anesthetics; details: apoferritin/1-aminoanthracene competitive binding, fluorescence; series mostly up to 77.5 µM; note: nearly all actives have a fitted effect of over 20% in size
Sequence of UniProt P02791 (P02791 whole entry, looked up): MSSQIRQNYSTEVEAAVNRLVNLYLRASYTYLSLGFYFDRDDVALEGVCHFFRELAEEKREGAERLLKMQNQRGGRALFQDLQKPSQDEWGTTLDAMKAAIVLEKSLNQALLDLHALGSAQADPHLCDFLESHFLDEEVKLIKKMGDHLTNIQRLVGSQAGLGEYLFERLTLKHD
Summary of the method: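 Horse-spleen apoferritin (10 uM) was mixed with 50% saturated 1-aminoanthracene in PBS, exposed to compounds for 10 min at room temperature, and read for fluorescence (ex 380 nm, em 535 nm). Competitive displacement was fitted with a four-parameter Hill equation.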
Potency is the fitted concentration of half-maximal effect; tags give direction and shape of the fitted curve.

Potency, inactive:
O=C(CSc1nccn1-c1ccccc1)Nc1nc2ccccc2s1
Cc1cc(C)n2cc(CSc3nnnn3-c3ccccc3C)nc2n1
CCCCn1c(NS(=O)(=O)c2ccc(C)cc2)c(S(=O)(=O)c2ccccc2)c2nc3ccccc3nc21
COc1ccc(NC(=O)c2cc3c(CO)cnc(C)c3oc2=Nc2cccc(C)c2)c(OC)c1
COc1ccc(/C=C/c2nnc(NC(=O)COc3cccc(C)c3)s2)cc1
O=Nc1c(-c2cccc([N+](=O)[O-])c2)nc2ncccn12
O=C1/C(=C\c2ccco2)CCC/C1=C\c1ccco1
COc1ccc(OC)c(CN2CCCC(C(=O)c3ccccc3SC)C2)c1 (stereo not drawn)
CC1Sc2ccc(S(=O)(=O)N3CCC(C(=O)N(C)Cc4ccco4)CC3)cc2NC1=O (stereo not drawn)
Cc1c(O)ccc2c(CN3CCN(C/C=C/c4ccccc4)CC3)cc(=O)oc12
Cc1ccc(-n2nc(CO)c(C(=O)NCc3cccs3)n2)cc1

Potency, inconclusive:
O=C(COC(=O)c1ncc(Cl)c(Cl)c1Cl)Nc1ccccc1OC(F)F 50.1 µM [inhibitor, single point]
Brc1ccc(OCCCOc2cccc3cccnc23)cc1 25.1 µM [inhibitor, partial curve]
Cc1ccc(Cn2c(C(=O)O)c(CNCc3cccs3)c3ccc(C)cc32)cc1 50.1 µM [inhibitor, single point]
C=CCn1c(SCC(=O)Nc2ccc3c(c2)OCO3)nnc1-c1cc(Br)ccc1O 17.8 µM [inhibitor, partial curve]
Cc1ccc(Nc2nnc(SCc3cc(=O)n4ccsc4n3)s2)c(C)c1 25.1 µM [inhibitor, partial curve]
COc1cc(-c2noc(-c3ccc(NCc4cccnc4)c([N+](=O)[O-])c3)n2)cc(OC)c1OC 50.1 µM [inhibitor, single point]
CC(C)c1ccc(/C=C/C(=O)NC2=NCCS2)cc1 39.8 µM [inhibitor, partial curve]
CCC1CN(C(=O)N2CCC(C(=O)NCCN(C)C)CC2)c2ccccc2O1 (stereo not drawn) 25.1 µM [inhibitor, single point]
Cc1ccc(COc2ccc(Br)cc2/C=N/O)cc1 22.4 µM [inhibitor, partial curve]
COc1ccccc1/C=C1\SC(=S)N(N2C(=O)CCCC2=O)C1=O 31.6 µM [inhibitor, partial curve]
CC(C)Cc1cc(C(=O)NCCc2ccccc2)no1 17.8 µM [inhibitor, partial curve]
Cn1cccc1C(=O)OCc1csc(-c2ccccc2)n1 28.2 µM [inhibitor, partial curve]
COc1nc(-c2ccccc2)ncc1S(=O)(=O)c1ccccc1 15.8 µM [inhibitor, partial curve]
O=C(NCCOC12CC3CC(CC(C3)C1)C2)c1cccc(Br)c1 28.2 µM [inhibitor, partial curve]
Cc1cccc(-c2nc(CS(=O)CC(=O)NCc3cccs3)c(C)o2)c1 (stereo not drawn) 39.8 µM [inhibitor, partial curve]
COc1cccc(NC(=O)CN2C(=O)NC(C)(c3ccc(C)cc3)C2=O)c1 (stereo not drawn) 7.94 µM [inhibitor, full curve]
CC1=C(C)CC2C(=O)N(c3cccc4ccccc34)C(=O)C2C1 (stereo not drawn) 50.1 µM [inhibitor, single point]
CN(C1CCCCC1)S(=O)(=O)c1ccc2c(c1)c(=O)c(C(=O)NCCc1ccccc1)cn2C 3.98 µM [inhibitor, single point]
COc1ccc(CNC(=O)CN2C(=O)C(c3ccccc3)Oc3cccnc32)cc1 (stereo not drawn) 44.7 µM [inhibitor, single point]
c1nc2sc3c(c2c2nnnn12)CCCC3 31.6 µM [inhibitor, partial curve]
Cc1nc(NC(=O)CN(C)S(=O)(=O)c2ccc(Br)cc2)sc1C 35.5 µM [inhibitor, single point]
N#C/C(=C/c1ccc(N2CCOCC2)c([N+](=O)[O-])c1)C(N)=O 50.1 µM [inhibitor, single point]
Cc1ccc(-c2csc(=S)n2CC(=O)OCC(=O)NCc2ccc(F)cc2)cc1 35.5 µM [inhibitor, single point]
CCN1CCN(C(=O)Cn2nc(-c3ccc(Cl)cc3)ccc2=O)CC1 25.1 µM [inhibitor, partial curve]
CCC(C)[C@H](NC(=O)N1CCn2c1nc1ccccc12)C(=O)NCCc1ccccc1 (stereo partly drawn) 28.2 µM [inhibitor, single point]
CC1CCN(c2ccccc2NC(=S)NC(=O)c2cccs2)CC1 22.4 µM [inhibitor, partial curve]
Cc1nn(C)c(C)c1S(=O)(=O)N1CCCC(C(=O)N2CCN(c3ccc(Cl)cc3)CC2)C1 (stereo not drawn) 31.6 µM [inhibitor, partial curve]
COC(=O)c1ccc(SCc2cnc(Cl)s2)cc1 14.1 µM [inhibitor, partial curve]
CC1=C(C#N)CCC(=O)N1Cc1c(F)cccc1Cl 25.1 µM [inhibitor, partial curve]
CN(C(=O)/C(N=Nc1cccc(C(F)(F)F)c1)=C(\O)C(F)(F)F)c1ccccc1 44.7 µM [inhibitor, single point]
COc1ccc(NCC(=O)N/N=C/c2ccc3c(c2)OCCO3)cc1 31.6 µM [inhibitor, single point]
Cc1nn(CCOc2cccc(Cl)c2)c(C)c1[N+](=O)[O-] 50.1 µM [inhibitor, single point]
